{
  "source": "the supplement of paper PMC11417369",
  "note": "± gives the standard deviation of the averaged measurements. The list shows a part of the results.",
  "data": [
    {"system": "PfAP2-G AP2 domain (GST-tagged)", "assay": "gcPBM binding intensity (ln(normalized median fluorescence intensity)); higher = stronger DNA binding", "method_in_brief": "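Alexa488 anti-GST antibody, scanned at 488 nm, detected GST-tagged P. falciparum DNA-binding domains that had been expressed in E. coli and incubated for 1 h on an Agilent 4 × 180k array. The array carried primer-extended double-stranded 36-bp intergenic genomic probes and negative controls. Binding intensity is the highest Masliner-normalised natural-log median intensity across replicate spots of either orientation of each probe.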", "values": [
      {"sequence": "AAACGTAACATATATATATATATATATAAGATATAT [CACACA_negctrl_site126]", "gcPBM binding intensity (ln)": "9.6 ± 0.16"},
      {"sequence": "ATATTTGTATAAATTGCACACTTTATTTTTTTTAAG [CACACA_site1558]", "gcPBM binding intensity (ln)": "9.99 ± 0.014"},
      {"sequence": "ATGTTATTACATAATTGTACATTTTGAGCAATTAAG [XGTACX_site4640]", "gcPBM binding intensity (ln)": "10.7 ± 0.49"},
      {"sequence": "ATAAATCTACACCGCACACAAAAACAACAAATATTA [CACACA_site5396]", "gcPBM binding intensity (ln)": "10.2 ± 0.22"},
      {"sequence": "AATGAATATATATAAATATATATATATATATATATA [CACACA_negctrl_site1494]", "gcPBM binding intensity (ln)": "9.89 ± 0.65"},
      {"sequence": "TTTTTTTTTTTTTCTTCACACACAGTACTACTATTT [CACACA_site8759]", "gcPBM binding intensity (ln)": "11.2 ± 0.95"},
      {"sequence": "TTAGCTTTTTTTTAAACATGCAACTACTTGATCCAC [TGCATGCA_site1017]", "gcPBM binding intensity (ln)": "10.1 ± 0.3"},
      {"sequence": "TATGTGAATCCTAAGTGTACACATCTTACATATATA [XGTACX_site2506]", "gcPBM binding intensity (ln)": "11.6 ± 0.8"},
      {"sequence": "AGTATACGCAGACACACACACACATATATATATATA [CACACA_site1735]", "gcPBM binding intensity (ln)": "10.3 ± 0.37"},
      {"sequence": "TATTTATTATTATGTACACACTATATTAAAACATAA [CACACA_site4549]", "gcPBM binding intensity (ln)": "11.4 ± 0.86"},
      {"sequence": "AAATGTGTAAATATAATTAGTTTCACAAAACAAATA [GTGCAC_negctrl_site543]", "gcPBM binding intensity (ln)": "9.9 ± 0.25"},
      {"sequence": "GGTATATGCATAAAGAGTACGTAACTTCTTTTTGTT [XGTACX_site6344]", "gcPBM binding intensity (ln)": "11.2 ± 0.59"},
      {"sequence": "ATAAGATGATTAATTACACACTTTATAGGATATTTA [CACACA_site1711]", "gcPBM binding intensity (ln)": "9.68 ± 0.13"},
      {"sequence": "AAAAATAAATAAAGTGGTACATAAAAAAGAGAAATT [XGTACX_site874]", "gcPBM binding intensity (ln)": "11.5 ± 0.87"},
      {"sequence": "GTGCATATGTAGATATGTACATATTTATTTATTATT [XGTACX_site7343]", "gcPBM binding intensity (ln)": "11.1 ± 0.64"},
      {"sequence": "TATATAAGGATATATACACACATATAGGTATTTATA [CACACA_site7092]", "gcPBM binding intensity (ln)": "9.88 ± 0.028"},
      {"sequence": "TCAGGAATATAAAGTGCACACATAATTTGGGGGCAA [CACACA_site7974]", "gcPBM binding intensity (ln)": "11.1 ± 0.73"},
      {"sequence": "TTTTAAAAAAATAAAAAATAATAAAAAAAATAAAAA [CACACA_negctrl_site1693]", "gcPBM binding intensity (ln)": "9.46 ± 0.014"},
      {"sequence": "AATATGATTATTACCCGTACATATTACCTTATGGTA [XGTACX_site1714]", "gcPBM binding intensity (ln)": "10.9 ± 0.48"},
      {"sequence": "AATGATATTATCTCTTCACACACTCACATACAGACA [CACACA_site8335]", "gcPBM binding intensity (ln)": "10.1 ± 0.2"},
      {"sequence": "TCATTGAAAAAAATGTGTACTCATCAAGTATATATT [XGTACX_site6430]", "gcPBM binding intensity (ln)": "11.4 ± 0.88"},
      {"sequence": "GCGGCGGTATCATGCACACGTATATATTGTAACAGT [CACACA_site4958]", "gcPBM binding intensity (ln)": "10.3 ± 0.14"},
      {"sequence": "ATATATAATTTTTGTTGTACATTATAAAAATAATTA [XGTACX_site2738]", "gcPBM binding intensity (ln)": "11.2 ± 0.59"},
      {"sequence": "ATTGTTATGAGAACAGCACACAAGCTACATCATATA [CACACA_site8192]", "gcPBM binding intensity (ln)": "10.1 ± 0.15"},
      {"sequence": "TTTACAGATACATTCACACATAAATTCATGTATAAT [CACACA_site5387]", "gcPBM binding intensity (ln)": "9.94 ± 0.057"},
      {"sequence": "GGATTTATTATATATACACACATACATATATATATA [CACACA_site8669]", "gcPBM binding intensity (ln)": "10.3 ± 0.44"},
      {"sequence": "GTCTAAGCTTATAGGCGTACACATGAATATGGATGT [XGTACX_site2439]", "gcPBM binding intensity (ln)": "11.6 ± 0.84"},
      {"sequence": "ATACATAAAATTAAAACACACATTTGATTAAATACG [CACACA_site7088]", "gcPBM binding intensity (ln)": "10.07 ± 0.071"},
      {"sequence": "ATCAAGCGCAATGTGGTGCGTAAATTTTGTATTATA", "gcPBM binding intensity (ln)": "10.2 ± 0.21"},
      {"sequence": "AAAGGATACAGACACACACACACATATATATATATA [CACACA_site906]", "gcPBM binding intensity (ln)": "10.2 ± 0.23"},
      {"sequence": "ATAAGAAAAAAGAACTGTACTAATAAAATATAAAAA [XGTACX_site3715]", "gcPBM binding intensity (ln)": "11.3 ± 0.75"},
      {"sequence": "ATTATATAATTGTCTTCACACACACCGATATATATA [CACACA_site8883]", "gcPBM binding intensity (ln)": "10.2 ± 0.16"},
      {"sequence": "TGTACATATATATAATATATATATCATCATATTTTC [CACACA_negctrl_site1750]", "gcPBM binding intensity (ln)": "10.4 ± 0.21"},
      {"sequence": "ATAATATATATACAAACACACAATTGTGTCCACATT [CACACA_site1747]", "gcPBM binding intensity (ln)": "11.4 ± 0.83"},
      {"sequence": "TCCTTAAAATATATCACACATTTCGTTCATTTATAA [CACACA_site4346]", "gcPBM binding intensity (ln)": "9.91 ± 0.18"},
      {"sequence": "TATATATATATATCCACACACATACAGATATTAAGA [CACACA_site4214]", "gcPBM binding intensity (ln)": "10.2 ± 0.25"},
      {"sequence": "AGTATACGAATAAAATGTACATACAAATTGTTGTAA [XGTACX_site36]", "gcPBM binding intensity (ln)": "11 ± 0.67"},
      {"sequence": "ATTCACGTGTCTTAAAAAAAAAAAAAAGAAAAAAAG [CACACA_negctrl_site573]", "gcPBM binding intensity (ln)": "10 ± 0.47"},
      {"sequence": "ATATATATATATATATGTACATATATATACATATAT [XGTACX_site6987]", "gcPBM binding intensity (ln)": "11.5 ± 1"},
      {"sequence": "TTATTTATAATATATACACACTAACATTATTTATCC [CACACA_site4835]", "gcPBM binding intensity (ln)": "9.815 ± 0.049"},
      {"sequence": "TATAATATATACAAATGTACATATATATATATATAT [XGTACX_site4559]", "gcPBM binding intensity (ln)": "11 ± 0.54"},
      {"sequence": "TATATATATATATATGGTACAGTTTATGCCTTTTAA [XGTACX_site6695]", "gcPBM binding intensity (ln)": "10.8 ± 0.56"},
      {"sequence": "ATTTTCATGATAAAGGTGCAATTATTTTTATAAGAA", "gcPBM binding intensity (ln)": "10.1 ± 0.26"},
      {"sequence": "AAAAAAAAAAAAAAAAAAAAAAAAAAAATTCTATAT [GTGCAC_negctrl_site468]", "gcPBM binding intensity (ln)": "11 ± 0.47"}
    ]}
  ]
}
